Some of the results follow.
What follows are sequences tested against T1, OsWOX13 (Oryza sativa, UniProt Q5QMM3 1-267) (assay: protein-binding microarray (RPBM); PBS, 2% BSA, 51.3 ng/ul salmon testes DNA, 50 uM zinc acetate, 200 nM TF, 25 C, 1 h; high values mean tight binding). Conditions: protein: recombinant; tags: N-terminal polyhistidine and DsRed monomer fusion (pET32a); label: CyDye5-dUTP incorporated in the synthesized complementary strand; 3' TTTTT single-stranded linker to array surface; dsDNA, one strand shown.
T1 sequence: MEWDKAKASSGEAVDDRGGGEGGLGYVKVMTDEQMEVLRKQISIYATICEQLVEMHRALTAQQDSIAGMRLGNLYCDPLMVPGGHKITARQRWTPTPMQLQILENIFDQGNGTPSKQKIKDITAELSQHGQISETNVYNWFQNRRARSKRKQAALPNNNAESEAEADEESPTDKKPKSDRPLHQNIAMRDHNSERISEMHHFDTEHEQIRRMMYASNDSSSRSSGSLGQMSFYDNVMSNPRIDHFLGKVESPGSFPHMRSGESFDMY
How it was run: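 Using Ni–NTA, transcription factors fused N-terminally to polyhistidine and DsRed were purified after expression in E. coli BL21-CodonPlus. These were incubated at 200 nM with a blocked, double-stranded custom Agilent array for 1 h at 25 °C in a buffer containing 50 µM zinc acetate, and the array was washed. The binding signal is per-feature fluorescence intensity (arbitrary units) on an Axon 4000B scanner.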
In the case of “CCGTTTGATTTAATAATTATATGGGAGTTCAAAGTAATTCCGGAGTCACCTAGTGCAG”, the binding signal is reported as 32600 fluorescence intensity (a.u.).
“CGGTCCATTAGCGCGTGATTAATTAAGTATTAGCTATTTTCGGAGTCACCTAGTGCAG” was tested, and the binding signal was 23400 fluorescence intensity (a.u.).
In the case of “TTGAAAATCAAAATTTTAGAATTTAAATTTTAACAACTACCGGAGTCACCTAGTGCAG”, the binding signal is reported as 3280 fluorescence intensity (a.u.).
With “AGTCCAAATTGTAACAATGGTAATCAAAGGTGGCTCAAGGCGGAGTCACCTAGTGCAG” the binding signal was 6990 fluorescence intensity (a.u.).
With “AACGTGACAAATATTAATTTGTCATAAGGGGAACAAAGCACGGAGTCACCTAGTGCAG” the binding signal was 12500 fluorescence intensity (a.u.).
With “CATGATGAATGATACTAAAATTTGACAATATTCCGGCGTCCGGAGTCACCTAGTGCAG” the binding signal was 14500 fluorescence intensity (a.u.).
With “AATAGACATATAAATGTAACTGTCTAAAGAATAGGGACCTCGGAGTCACCTAGTGCAG” the binding signal was 9070 fluorescence intensity (a.u.).
In the case of “TTCTAAATTAACCTTGCACGTGATTAATGCAAATCGGATGCGGAGTCACCTAGTGCAG”, the binding signal is reported as 18800 fluorescence intensity (a.u.).
For “CCCACCCCGCGTCGCAATTAATAATTGGTCGCGACTCGCGCGGAGTCACCTAGTGCAG”, the binding signal was 5700 fluorescence intensity (a.u.).
In the case of “CCAAATTTCGACTGATCGAAACCCTAGCCCTAGGCCACCGCGGAGTCACCTAGTGCAG”, the binding signal is reported as 5680 fluorescence intensity (a.u.).
“GCCATCAACATTGAACTGTTGATTGCCCCTCTGCCAAGAACGGAGTCACCTAGTGCAG” was tested, and the binding signal was 8520 fluorescence intensity (a.u.).
With “AGGGAGTAATTACCAAGTGAGTTTATTGTGAAGTTTTCAACGGAGTCACCTAGTGCAG” the binding signal was 6260 fluorescence intensity (a.u.).
In the case of “ATGATATAAATTGTAGGAGTTACATTGCAATTATGCTAGTCGGAGTCACCTAGTGCAG”, the binding signal is reported as 9860 fluorescence intensity (a.u.).
In the case of “TTGATAAACACAGTGACTGACTACGAATATTAAACTCTGTCGGAGTCACCTAGTGCAG”, the binding signal is reported as 7060 fluorescence intensity (a.u.).
For “GGCCTGACAGGCCCTGACAGCATTTGAACCGGGACTAAAGCGGAGTCACCTAGTGCAG”, the binding signal was 14900 fluorescence intensity (a.u.).
“GGTTAATTATATGTGTGCGCGCCATGTTTGTCATTGTTAACGGAGTCACCTAGTGCAG” was tested, and the binding signal was 28800 fluorescence intensity (a.u.).
“GGCACTATCAACACGATTTGATTAAGTTGAACAACCTTCCCGGAGTCACCTAGTGCAG” was tested, and the binding signal was 6450 fluorescence intensity (a.u.).
In the case of “GTAGCTCTTAATTGTTGGGTCAGAGAAGAAGTCATCTTCACGGAGTCACCTAGTGCAG”, the binding signal is reported as 3580 fluorescence intensity (a.u.).
“TCACAAATTTACAAAATTTTATCCTCAAATTTATGTTGAACGGAGTCACCTAGTGCAG” was tested, and the binding signal was 13400 fluorescence intensity (a.u.).
For “GATACTAATTATAAATATTAAGTGTAGACTATTAATAAAACGGAGTCACCTAGTGCAG”, the binding signal was 6430 fluorescence intensity (a.u.).
“TCGTAAATTAATTATTAATAATATACTAATGGTATCCCCACGGAGTCACCTAGTGCAG” was tested, and the binding signal was 53900 fluorescence intensity (a.u.).
“ACTGTAAATTGCGAGACGAATCTTTTGAGCCTAATTATGCCGGAGTCACCTAGTGCAG” was tested, and the binding signal was 16400 fluorescence intensity (a.u.).
In the case of “ATATAATTACAATACAATCGTAGTGTAATTACACTGTAACCGGAGTCACCTAGTGCAG”, the binding signal is reported as 14800 fluorescence intensity (a.u.).
“TCGACTTTGATTTGTACGATTGATTCCTTGAGTATATGTTCGGAGTCACCTAGTGCAG” was tested, and the binding signal was 23900 fluorescence intensity (a.u.).
In the case of “TTTTGATGGGGAGACATGGATAATTGGTGACTGCTCGATGCGGAGTCACCTAGTGCAG”, the binding signal is reported as 26000 fluorescence intensity (a.u.).
For “ATTAAATATAAATTAAAAGAAAATCTAATTGCACAGTTAGCGGAGTCACCTAGTGCAG”, the binding signal was 18200 fluorescence intensity (a.u.).
For “ATGAATCTAGTCAGATTGGCCAATTTGATTTGTTTTACTCCGGAGTCACCTAGTGCAG”, the binding signal was 9360 fluorescence intensity (a.u.).
“TCCAAATTAGCGTCCAAACATCCGATGTGACATGGGCTAACGGAGTCACCTAGTGCAG” was tested, and the binding signal was 12900 fluorescence intensity (a.u.).
For “AGTAATTTAGAAGTAGAACCCTATTCCATTCCATCGTGGGCGGAGTCACCTAGTGCAG”, the binding signal was 5750 fluorescence intensity (a.u.).
In the case of “TTATATACAGACTGATTAATTTCTTTCAGTTGTAACTTGGCGGAGTCACCTAGTGCAG”, the binding signal is reported as 23400 fluorescence intensity (a.u.).
In the case of “TTGATTGTGTGCAACTGACTTTGTCCCCGTTCTATAATATCGGAGTCACCTAGTGCAG”, the binding signal is reported as 8250 fluorescence intensity (a.u.).
“GATAATCACTGTATCTACTTGATTGTACAAATAAATTAAACGGAGTCACCTAGTGCAG” was tested, and the binding signal was 4760 fluorescence intensity (a.u.).
With “GATATTAGATTAGTAAATAGTCAATACTAAACCAGAATGACGGAGTCACCTAGTGCAG” the binding signal was 6070 fluorescence intensity (a.u.).
For “TATGAGTTAGATTGGACCTATATTTAAGGAAGTTAAAGTGCGGAGTCACCTAGTGCAG”, the binding signal was 7450 fluorescence intensity (a.u.).
With “TATTAATTTTGTTATTGCAATACATTATTTTAGAAAGGAACGGAGTCACCTAGTGCAG” the binding signal was 14000 fluorescence intensity (a.u.).
In the case of “AGTTTTCAATCTTATCTTGAAAATTTTCAAATCTAAGTTGCGGAGTCACCTAGTGCAG”, the binding signal is reported as 6620 fluorescence intensity (a.u.).
With “ATAAGTCATAACTGAGTGATTTGCCGATCCATGATTTATTCGGAGTCACCTAGTGCAG” the binding signal was 10600 fluorescence intensity (a.u.).
With “AATTTGACAGGTAACTGAGTTTTGAGCAATACCTTAGAAGCGGAGTCACCTAGTGCAG” the binding signal was 29600 fluorescence intensity (a.u.).
For “TGTCACATGATTAATGATTTAATTTTGTCAAAAGAAATACCGGAGTCACCTAGTGCAG”, the binding signal was 17100 fluorescence intensity (a.u.).
“GTTCGCGGTAATTGAGAGAGTAAAGGCCATTTGACGCAGCCGGAGTCACCTAGTGCAG” was tested, and the binding signal was 29900 fluorescence intensity (a.u.).
For “AATAATTAGCTGTAATTCTGTGAGCAAAGGTCAGGATTATCGGAGTCACCTAGTGCAG”, the binding signal was 34600 fluorescence intensity (a.u.).
For “TCCTAATGACTCCACATTTTCCTGTCAATTTCCACACTAACGGAGTCACCTAGTGCAG”, the binding signal was 6540 fluorescence intensity (a.u.).

Reference: paper PMC7819943, “Rice protein-binding microarrays: a tool to detect cis-acting elements near promoter regions in rice”
